PubChem BioAssay AID624418 (National Center for Advancing Translational Sciences (NCATS), 2012)
Hit rate of the full screen: of about 410,000 compounds, about 530 (0.13%) were called active. This list was built around the results that the source calls inconclusive (neither active nor inactive); the mix of calls is not that of the screen. The call rests on the fitted dose curve; in most records, active means well fitted inhibition curve with a large enough effect; inconclusive means small, poorly fitted or top-dose-only effect, or another doubt; inactive means no such curve, though single readings can be large or run the other way. Potencies of inconclusive entries are doubtful fits and often do not repeat.

Assay: qHTS of GLP-1 Receptor Inverse Agonists: Cytotox Screen
Conditions: HEK293 cAMP-luciferase reporter cells, luminescence, 24 h; activity change, negative = inhibition: at 38.3 µM (top of the series) unless noted
How it was run: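 Luminescence readout: signal drop marks cytotoxicity. Plated cells grew 12 h at 37 °C, 5% CO2, received 23 nL compound for 24 h, then got luciferase reagent, read after 12 min at RT.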
On the % scale 0 is the no-effect control and ±100 the full control effect; potency means the concentration at half of the fitted maximal effect.

| SMILES | Potency | activity change, negative = inhibition |
| --- | --- | --- |
| O=C(CCCN1C(=O)/C(=C\c2cccs2)SC1=S)Nc1cccc(C(=O)O)c1 | inconclusive: 10 µM [inhibitor, single point] |  |
| COc1cc(C2Nc3cccc4cccc(c34)N2)cc(OC)c1O | inconclusive: 28.2 µM [inhibitor, single point] |  |
| Cc1ccc(-c2c[n+]3c(n2-c2ccccc2)CCC3)cc1 | inconclusive: 11.2 µM [inhibitor, partial curve, poor fit] |  |
| CCOc1ccc(NC(=O)C(=O)NCCN2CCN(S(=O)(=O)c3ccccc3)CC2)cc1 | inactive |  |
| CC(OC(=O)c1ccc(Br)o1)C(=O)NCC1CCCCC1 (stereo not drawn) | inactive |  |
| COc1cc(C2C(C(=O)c3ccco3)=C(O)C(=O)N2Cc2cccnc2)cc(OC)c1OC (stereo not drawn) | inconclusive: 12.6 µM [inhibitor, partial curve] |  |
| O=C(N/N=C/c1cccc([N+](=O)[O-])c1)C1COc2ccccc2O1 (stereo not drawn) | inactive |  |
| COc1cc(C(=O)NC2CCN(C)CC2)ccc1Nc1ncc2c(n1)N(CCc1ccccc1)CCC(=O)N2C | inconclusive: 7.08 µM [inhibitor, partial curve, poor fit] |  |
| CCc1ccc(CNC(=O)Cc2ccc(NC(=O)C3=C(C)OCCS3)cc2)cc1 | inconclusive: 0.501 µM [inhibitor, full curve, poor fit] |  |
| O=C(C1=NN(c2ccccc2)C2C(=O)N(c3ccc(Cl)cc3)C(=O)C12)c1ccccc1 (stereo not drawn) | inactive |  |
| COc1ccc2c(c1)c(=O)c(C(=O)c1ccccc1)cn2Cc1ccc(C)cc1 | inconclusive: 10 µM [inhibitor, partial curve] |  |
| O=C(NC1CCCCCC1)C(=S)NCCc1ccccc1 | inconclusive: 28.2 µM [inhibitor, single point] |  |
| Cc1ccc(/C=C/C(=O)c2c(C)nc3ccccn23)cc1 | inconclusive: 28.2 µM [inhibitor, single point] |  |
| Cc1ccc(NC2=CC(=O)C(=O)c3ccccc32)cc1 | inconclusive: 28.2 µM [inhibitor, single point] |  |
| CCOCCCNC(=O)c1cc2sc(Cl)cc2n1CC | inconclusive: 31.6 µM [inhibitor, single point] |  |
| CCOC(=O)c1c(NC(=S)NCCc2ccccc2)sc2c1CC(C(C)C)OC2 (stereo not drawn) | inactive |  |
| COc1ccc(C2=CC3=C(Br)C(=O)C(C)(OC(=O)c4cccs4)C(=O)C3=CO2)cc1 (stereo not drawn) | inactive |  |
| COc1ccccc1-c1nn(Cc2ccccc2)cc1C(=O)N1CCN(c2ncccn2)CC1 | inconclusive: 4.47 µM [inhibitor, partial curve] |  |
| CC1(C)Cc2c(sc(NC(=O)c3ccc4ncsc4c3)c2C(N)=O)C(C)(C)N1 | inconclusive: 28.2 µM [inhibitor, single point] |  |
| O=C(NCC(c1ccc(F)cc1)N1CCOCC1)c1cccc(Br)c1 (stereo not drawn) | inactive |  |
| CCOC(=O)c1ccc(NC(=S)N(CCCN2CCCC2)Cc2cccs2)cc1 | inconclusive: 12.6 µM [inhibitor, single point] |  |
| Cc1cccc(NC(=O)CSc2nc(-c3cccs3)cc(C(F)(F)F)c2C#N)c1 | inactive |  |
| O=C(NC1CC2CCCC(C1)N2S(=O)(=O)c1ccccc1)c1ccccc1 (stereo not drawn) | inactive |  |

| SMILES | Potency | activity change, negative = inhibition |
| --- | --- | --- |
| CCCCCCCOC(=O)C[N+](C)(C)CCOC1CC2CCC1(C)C2(C)C (stereo not drawn) | active: 11.2 µM |  |
| C=CCn1c(C)cc(C(=O)CSc2nnc(NCc3ccccc3)s2)c1C | inconclusive: 7.94 µM [inhibitor, partial curve, poor fit] |  |
| COc1cccc(NC(=O)CSc2nc3c(sc4ccccc43)c(=O)n2CCN(C)C)c1 | inactive |  |
| N#C/C(=N\Nc1ccc(F)cc1)C(=O)C1CC1 | inconclusive: 11.2 µM [inhibitor, single point] |  |
| NC(=O)COc1ccccc1C(=O)O |  | inactive: 1.87% [at 7.66 µM] |
| Cc1cccc(C=NOCCc2ccccc2)n1 | inconclusive: 28.2 µM [inhibitor, single point] |  |
| COCc1cc(=O)[nH]c(Nc2nc3ccc(C)cc3o2)n1 | inconclusive: 5.01 µM [inhibitor, full curve, poor fit] |  |
| COc1ccc(NS(=O)(=O)c2cc(NC(=O)c3ccc(=O)[nH]n3)ccc2C)cc1 | inconclusive: 28.2 µM [inhibitor, single point] |  |
| CCCCSCc1nc2nc(Cl)c(Cl)nc2[nH]1 | inconclusive: 31.6 µM [inhibitor, single point] |  |
| CC(C)C1C(c2ccccc2)NC(c2ccccc2)CC1(O)c1ccc(F)cc1 (stereo not drawn) | inconclusive: 28.2 µM [inhibitor, single point] |  |
| C=C1C(=O)OC2C1CCC(C)=C1C(=O)C3OC3(C)C12 (stereo not drawn) | inconclusive: 12.6 µM [inhibitor, partial curve, poor fit] |  |
| COc1ccc(CN(C)C(=O)C(Cc2ccccc2)NC(=O)c2ccccc2)cc1F (stereo not drawn) | inconclusive: 14.1 µM [inhibitor, single point] |  |
| CN(C)c1cccc(/C=C(\C#N)c2ccccc2)c1 | inconclusive: 10 µM [inhibitor, partial curve, poor fit] |  |
| COc1ccccc1CN(Cc1cc2cc(C)cc(C)c2[nH]c1=O)Cc1nnnn1CC1CCCO1 (stereo not drawn) | inconclusive: 28.2 µM [inhibitor, single point] |  |
| CCCc1[nH]nc2c1C(C1CC=CCC1)C(C#N)=C(N)O2 (stereo not drawn) | inconclusive: 10 µM [inhibitor, single point] |  |
| CN1/C(=c2/s/c(=C3/C(=O)N(c4ccccc4)NC3=Nc3ccccc3)n(C)c2=O)C(C)(C)c2ccccc21 | inconclusive: 15.8 µM [inhibitor, single point] |  |
| CSc1cccc(NC(=O)C2CCCN(S(=O)(=O)c3cnc[nH]3)C2)c1 (stereo not drawn) | inconclusive: 0.891 µM [inhibitor, full curve, poor fit] |  |
| CCOC(=O)C1=CC[C@H]2c3c(c4ccccc4n3C)C(=O)C1N2Cc1ccccc1 | inconclusive: 28.2 µM [inhibitor, single point] |  |
| CCCCN(CC)CCCNC(=O)c1ccc2c(c1)NC(=O)CN2C | inactive |  |
| COCCNc1nc(NCC2CCCCC2)c2sc(-c3ccccc3)cc2n1 | inconclusive: 11.2 µM [inhibitor, single point] |  |
| COc1ccc(-c2nc3cccc(C)n3c2NCc2ccco2)cc1OC | inconclusive: 15.8 µM [inhibitor, single point] |  |
| Cn1cc(C=C2C(=O)CC(C)(C)CC2=O)c2ccccc21 | inactive |  |
| O=C(N/N=C/c1cccs1)c1ccc2ccccc2c1 | inconclusive: 5.01 µM [inhibitor, full curve] |  |

| SMILES | Potency | activity change, negative = inhibition |
| --- | --- | --- |
| Cc1ccnc(NC(=O)CCC(=O)N(Cc2ccco2)C(C(=O)NC(C)C)c2ccc(F)cc2)c1 (stereo not drawn) | inactive |  |
| S=C(NCCc1ccccc1)NCCN1CCOCC1 | inactive |  |
| O=C(Nc1ccc(F)cc1)N(Cc1ccco1)Cc1cc2cc3c(cc2[nH]c1=O)OCO3 | inactive |  |
| CCN(CC)c1ccc(S(=O)(=O)N2CCOCC2)cc1NC(=O)COC(=O)/C=C/c1ccco1 | inactive |  |
| O=c1cc(CSc2ccc(Cl)cc2)[nH]c2[nH]n(-c3ccccc3)c(=O)c12 | inconclusive: 28.2 µM [inhibitor, single point] |  |
| CCOC(=O)N1CCC(N2Cc3cccc(C(=O)N4CC(C)CC(C)C4)c3C2=O)CC1 (stereo not drawn) | inconclusive: 28.2 µM [inhibitor, single point] |  |
| CSc1ccccc1NC(=O)Nc1ccccc1 | inactive |  |
| Cc1ccc(S(=O)(=O)/N=C2\C=C(Nc3cccc(C(=O)O)c3)C(=O)c3ccccc32)cc1 | inconclusive: 12.6 µM [inhibitor, single point] |  |
| O=C(NCC1CCCO1)C(=Cc1cccc([N+](=O)[O-])c1)C(=O)NCC1CCCO1 (stereo not drawn) | inconclusive: 11.2 µM [inhibitor, single point] |  |
| COc1ccccc1NC(=O)Cn1cc(C(=O)C(=O)N2CCOCC2)c2ccccc21 | inconclusive: 28.2 µM [inhibitor, single point] |  |
| O=C(N/N=C/c1ccc(OCc2ccccc2)cc1)c1ccc(O)cc1 | inconclusive: 11.2 µM [inhibitor, single point] |  |
| Cc1nc(C(=O)NC2CCOCC2)sc1C1(C)CC(c2ccccc2)=NO1 (stereo not drawn) | inconclusive: 0.501 µM [inhibitor, full curve, poor fit] |  |
| CCN1CCN(c2cc(SC(C)C)nc(-c3ccc(OC)cc3)n2)CC1 | inconclusive: 14.1 µM [inhibitor, single point] |  |
| CC(=C/c1ccccc1)/C=N/n1c(C)n[nH]c1=S | inconclusive: 22.4 µM [inhibitor, single point] |  |
| COc1ccc(C(=O)NC(=S)Nc2ccccc2N2CCOCC2)cc1[N+](=O)[O-] | inconclusive: 31.6 µM [inhibitor, single point] |  |
| COc1ccc2c(c1)-c1nc(NC(=O)c3cc(OC)c(OC)c(OC)c3)sc1CC2 | inconclusive: 10 µM [inhibitor, partial curve, poor fit] |  |
| CC1CCc2nc(NC(=O)CN3CCN(c4ccc(F)cc4)CC3)sc2C1 (stereo not drawn) | inconclusive: 2 µM [inhibitor, full curve] |  |
| CC(C)(C)OC(=O)CNC(=O)c1[nH]cnc1C(=O)NCCCCCNC(=O)OC(C)(C)C | inactive |  |
| COCc1cc(C)[nH]c(=O)c1C#N | inactive |  |
| Cc1c2cnn(CC(=O)NCCCN3CC(C)CC(C)C3)c(=O)c2c(C)n1Cc1ccc(Cl)cc1 (stereo not drawn) | inconclusive: 10 µM [inhibitor, single point] |  |
| CC(C(=O)Nc1ccc(Cl)cc1)N(C)Cc1cccs1 (stereo not drawn) | inactive |  |
| COc1ccccc1CN(C)C(=O)C(c1ccccc1)c1ccccc1 | inconclusive: 28.2 µM [inhibitor, single point] |  |
